# Measured values taken from PubChem BioAssay AID1347073 (National Center for Advancing Translational Sciences (NCATS), 2019).
# Among all 45,000 compounds or so, about 200 (0.44%) were called active. About 7% were inconclusive and are not listed. Calls follow the shape of the dose curve; as a rule, active = well fitted activation curve with a large enough effect; inconclusive = small, poorly fitted or top-dose-only effect; inactive = no such curve, though single readings can be large or run the other way. This is one part of the list.
# Assay: qHTS of TDP-43 Inhibitors: NCGC Sytravon Library Screen; also: 0% is about no effect; nearly all actives have a fitted effect of over 55% in size
# Conditions: yeast TDP-43 toxicity rescue, BacTiter-Glo growth, 24 h; series mostly up to 46.1 µM; growth rescue (activation): at the top concentration
# Summary of the method: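 TDP-43-expressing yeast, pregrown in raffinose, seeded at OD600 0.02 in galactose medium with compound for 24 hr at 30 deg C. Growth read by BacTiter-Glo luminescence, so rescue of toxicity appears as activation.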
row,SMILES,growth rescue (activation)
1,Cc1cccc(OCCCC(=O)Nc2nccs2)c1C,inactive: 22.6%
2,Cc1ccc(C)c(OCCC(=O)Nc2cc(S(=O)(=O)N3CCCCC3)ccc2C)c1,inactive: 8.81%
3,CN1CCCCC1(C)C(=O)NCc1ccc(F)cc1 (stereo not drawn),inactive: 2.42%
4,CC1(C)OC(=O)N(c2ccccn2)C1(C)O (stereo not drawn),inactive: -19.1%
5,COc1ccc(CCNS(=O)(=O)c2ccc3c(c2)NC(=O)CO3)cc1OC,inactive: -25.2%
6,CC(C)(C)c1ccc(C(=O)NCCCNC(=O)c2ccccn2)cc1,inactive: -6.16%
7,O=C(CN1CCN(S(=O)(=O)c2ccc(Cl)cc2)CC1)N1CCCC1,inactive: 8.19%
8,CC(C)N(C(=O)Cn1cc(S(=O)(=O)Cc2ccc(Cl)cc2)c2ccccc21)C(C)C,inactive: 7.74%
9,OCCC1CN(CC(c2ccccc2)c2ccccc2)CCN1C1CCCC1 (stereo not drawn),inactive: -3.48%
10,CCN1C(=O)/C(=C\c2nc3ccccc3c(=O)n2-c2ccccc2)c2ccccc21,inactive: 17.7%
11,CSc1ncc(C(=O)Nc2ccccc2C)c(C)n1,inactive: 10.9%
12,CC1CN(S(=O)(=O)c2ccc(F)cc2)C(C)N1C(=O)N1CCOCC1 (stereo not drawn),inactive: 3.57%
13,COc1ccccc1N(CC(=O)NC1CCCC1)C(=O)CNC(=O)c1cccs1,inactive: -12.7%
14,COc1ccc(OC)c(NC(=O)C(C)N2c3cccc4cccc(c34)S2(=O)=O)c1 (stereo not drawn),inactive: -7.99%
15,N#Cc1c(NC(=O)CSc2nnc(-c3ccncc3)n2CC2CCCO2)sc2c1CCCC2 (stereo not drawn),inactive: 13.9%
16,CCn1cc(-c2cc(C(=O)O)on2)c(C)n1,inactive: 7.85%
17,COc1cccc(CSc2nc3ccncc3[nH]2)c1,inactive: -24.9%
18,O=C(COC(=O)C1(c2ccc(F)cc2)CCCC1)N1CCN(C(=O)c2ccco2)CC1,inactive: 12.7%
19,Cc1cc(C(=O)CN2C(=O)NC3(CCCc4ccccc43)C2=O)c(C)n1C (stereo not drawn),inactive: -9.62%
20,Cc1ccc(CNC(=O)COC(=O)c2ccc(S(=O)(=O)N3CCOCC3)cc2)cc1,inactive: -13.6%
21,COc1ccc(NC(=O)C2CCCN(S(=O)(=O)c3cccc4nonc34)C2)cc1OC (stereo not drawn),inactive: -0.907%
22,CC(=O)C1=C(O)C(=O)N(c2ccc(Br)cn2)C1c1ccccc1[N+](=O)[O-] (stereo not drawn),inactive: 2.75%
23,Cc1ccc(S(=O)(=O)NCC(=O)OCC(=O)c2c(N)n(C)c(=O)n(C)c2=O)cc1,inactive: 14%

row,SMILES,growth rescue (activation)
1,CC(C)N(Cc1cc2ccccc2[nH]c1=O)C(=O)c1cccc([N+](=O)[O-])c1,inactive: 27.6%
2,CC(C)COc1ccc(C(=O)N2C(=O)c3ccc(N)cc3C2=O)cc1,inactive: 13.3%
3,O=C(Cc1ccc(Cl)cc1)NCCCNC(=O)c1cccnc1,inactive: -11.3%
4,Cc1sc(NC(=O)CSc2nnnn2C(C)C)c(C#N)c1C,inactive: 15.2%
5,Cc1cccc(OCC(=O)NCC(=O)N/N=C/c2cc(Br)cc(Br)c2O)c1,inactive: 3.81%
6,CCn1c(=O)c(=O)[nH]c2cc(C(=O)NCc3ccc(F)cc3)ccc21,inactive: -3.33%
7,CCN1/C(=C2\C(=O)N(C)C(=S)N2c2ccccc2)C=Cc2ccccc21,inactive: -28.6%
8,CCN1C(=O)/C(=C2\SC(=S)N(NC(=O)c3ccccc3O)C2=O)c2ccccc21,inactive: -4.6%
9,Cc1ccc(NC(=O)CS(=O)c2ccccc2N)c(C)c1 (stereo not drawn),inactive: 22.3%
10,Cc1cc(C2=NNC(=Nc3ccc(S(=O)(=O)N4CCOCC4)cc3)SC2)c(C)n1C,inactive: -1.48%
11,CC1(C(=O)O)CCC(C(=O)Nc2cccc(F)c2)C1(C)C (stereo not drawn),inactive: -10.7%
12,O=S1(=O)N=C(N(CCO)/N=C/C=C/c2ccccc2)c2ccccc21,inactive: -26.1%
13,CC(=O)c1ccc(NC(=O)C(C)Nc2ccc(Cl)cc2)cc1 (stereo not drawn),inactive: 27.6%
14,Cc1ccnc(NC(=S)N2CCN(c3cccc(C(F)(F)F)c3)CC2)c1,inactive: 24.3%
15,COc1ccccc1N1CCN(/N=C/c2ccc(O)c(O)c2)CC1,inactive: 10.7%
16,COc1ccc2nc(NC(=O)c3ccc(NS(=O)(=O)c4cccs4)cc3)sc2c1,inactive: 4.39%
17,Cc1ccc(/C=C2/NC(=O)N(Cc3ccccc3F)C2=O)o1,inactive: -2.17%
18,Cc1ccc(S(=O)(=O)N2CCOCC2)cc1C(=O)OC1CCCCC1=O (stereo not drawn),inactive: 10.6%
19,COC(=O)C(C)(C)ONC(=O)Nc1ccccc1Cl,inactive: 7.17%
20,O=C(Cc1c(C(=O)O)[nH]c2ccccc12)NC1CCCC1,inactive: -5.7%
21,COc1ccc(-c2cc(C3CC3)nc(N)c2C#N)cc1,inactive: 4.03%
22,O=C(COC(=O)c1ccc(Br)cc1)Nc1ccccc1Br,inactive: 6.05%
23,Cc1csc(CN(C)C(=O)CC2C(=O)NCCN2CC(C)(C)C)n1 (stereo not drawn),inactive: 2.51%

row,SMILES,growth rescue (activation)
1,Cc1nc(C(=O)N2CCC(C)(C(=O)NS(=O)(=O)C3CC3)C2)c(C)o1 (stereo not drawn),inactive: 9.93%
2,COC(=O)c1ccc(CNC(=O)c2coc3ccccc3c2=O)cc1,inactive: -6.42%
3,COc1ccc(-c2cnc3c(NC(C)=O)cc(-c4cccc(C(=O)NCCO)c4)cn23)cc1OC,inactive: -3.22%
4,CC(NC(=O)c1cccc(S(=O)(=O)N(C)C)c1)C1CC2CCC1C2 (stereo not drawn),inactive: -8.18%
5,COC(=O)CCN(C(=O)c1ccc(N2CCCCC2)c([N+](=O)[O-])c1)c1ccccn1,inactive: 35%
6,COc1ccc(-c2cc(C(=O)Nc3cccnc3)no2)cc1OC,inactive: 14.9%
7,Clc1ccc2oc3c(Cl)ncnc3c2c1,inactive: 19.1%
8,COc1ccc(C(C(=O)NC2CCCC2)N(CCCO)C(=O)c2snc(C(N)=O)c2N)cc1 (stereo not drawn),inactive: -28.6%
9,O=c1[nH]c(CSc2nnnn2-c2ccc(Cl)cc2)nc2ccccc12,inactive: 7.85%
10,CCOC(=O)C1CCN(C(=O)COC(=O)c2ccc3c(c2)C(=O)N(c2ccc(OCC)cc2)C3=O)CC1,inactive: 0.536%
11,CC(CC(=O)Nc1ccc2c(c1)c(=O)n(C)n2Cc1ccc(F)cc1)c1ccccc1 (stereo not drawn),inactive: 4.98%
12,O=C(CN1CCCCC1)NNC(=O)c1cccc(Br)c1,inactive: 5.45%
13,Cc1cccc(NC(=O)C2CCCN(C(=O)Nc3ccc(F)cc3)C2)c1C (stereo not drawn),inactive: 7.53%
14,O=C(COC(=O)c1cc(=O)[nH]c2ccccc12)Nc1ccc(F)cc1F,inactive: -13.4%
15,O=C(O)c1ccc2c(c1)C(=O)N(CCc1c[nH]c3ccccc13)C2=O,inactive: 0.713%
16,CCN(CC)C(=O)CSc1nc2c(c(-c3cccnc3)c1C#N)CCCC2,inactive: 3.03%
17,COc1cccc(CNC(=O)COC(=O)c2ccc(Cl)s2)c1,inactive: -7.07%
18,CC(C)Oc1cccc(C(=O)NC(=S)NCc2cccnc2)c1,inactive: 20.2%
19,CC1(C(=O)Nc2ccc3c(c2)OCO3)CCN1C(=O)CC1CC1 (stereo not drawn),inactive: 0.0525%
20,CCc1cccc(NC(=O)c2cc(-c3ccccc3)n[nH]2)c1,inactive: 23.3%
21,COc1ccc(NC(=O)CNC(=O)c2ccco2)cc1S(=O)(=O)Nc1cc(C)ccc1Br,inactive: 12.4%
22,C=C(C)CN1CCN(S(=O)(=O)c2ccc(C)c(N(C)S(=O)(=O)c3ccc(C)cc3)c2C)CC1,inactive: 1.83%
